Results: ChEMBL document CHEMBL4888484, “Replenishing the malaria drug discovery pipeline: Screening and hit evaluation of the MMV Hit Generation Library 1 (HGL1) against asexual blood stage Plasmodium falciparum ,using a nano luciferase reporter read-out” (2022)
The whole screen tested about 150,000 compounds, of which about 540 (0.36%) showed an effect of 50% or more. The list shows a part of the results.

The compounds below were run on Plasmodium falciparum (assay: Primary screen in NF54 nanoGlo assay, in single point, at 2uM, 72h; a lower Z score goes with more inhibition). Settings: timepoint 72 hour.
Assay type: functional, Erythrocyte
COc1ccc(CNC(=O)N(Cc2ccco2)C2CCOCC2)cc1 was tested, and the “% Inhibition” value was -7% and the Z score was 1.08. In the case of C[C@@H](CN(C)C(=O)c1ccccc1-c1cncnc1)c1ccccc1, the “% Inhibition” value is reported as -5% and the Z score is reported as 0.44. For CC(NCC1CCc2nncn2C1)c1nc(-c2cccs2)no1 (stereo not given), the “% Inhibition” value was -3% and the Z score was 0.26. Cc1cnn(CCN(Cc2coc(-c3cccs3)n2)Cc2coc(-c3cccs3)n2)c1 was tested, and the “% Inhibition” value was -1% and the Z score was 0.17. With CC#CC(=O)N1CCC([C@]2(CCc3ccccc3)NC(=O)N(CCN(C)C)C2=O)CC1 the “% Inhibition” value was -6% and the Z score was 0.67. With Cc1nncn1CCN(C)Cc1nc(CC(C)C)no1 the “% Inhibition” value was -14% and the Z score was 1.82. With C=CCn1cc(CN2CCN(c3ncc(Cl)cn3)CC2)c(C)n1 the “% Inhibition” value was 1% and the Z score was -0.17. In the case of CCN1CCN(C(=O)CCN(CCCN2CCOCC2)c2nc(-c3ccccc3Cl)nc3ccccc23)CC1, the “% Inhibition” value is reported as 2% and the Z score is reported as -0.22. In the case of O=C(N[C@H]1CC[C@H](O)CC1)c1ccccc1NCc1ccco1, the “% Inhibition” value is reported as -4% and the Z score is reported as 0.63. In the case of Cc1cc(C(=O)NCC2(Cn3cccn3)CC2)c2ccc(C)c(C)c2n1, the “% Inhibition” value is reported as 0% and the Z score is reported as -0.02. OC1CCC2CN(c3ncc(Cl)c(N4CC5CCC(O)C5C4)n3)CC12 (stereo not given) was tested, and the “% Inhibition” value was 40% and the Z score was -5.8. In the case of COc1ccc(CN2C[C@@H]3NCCO[C@H]3C2)cc1Cn1cccn1, the “% Inhibition” value is reported as -16% and the Z score is reported as 1.59. With CCn1nc(C(=O)N2CCC2)c2ccccc2c1=O the “% Inhibition” value was -10% and the Z score was 1.83. In the case of CC(C)c1nc(CNc2cc(C(F)(F)F)cc3c2OCC(=O)N3)cs1, the “% Inhibition” value is reported as 1% and the Z score is reported as -0.2. O=C1CCCC1C1COCCN1C(=O)c1cc2c(F)cc(Br)cc2[nH]1 (stereo not given) was tested, and the “% Inhibition” value was -6% and the Z score was 0.79. For O=C(O)c1c(S(=O)(=O)N2CC[C@H]3CCCC[C@H]3C2)sc2c1CCNC2, the “% Inhibition” value was -10% and the Z score was 1.18. In the case of Cc1ccc(Cc2nc(N3CCCN(C(=O)COc4ccccc4)CC3)c3c(C)nn(-c4ccccc4)c3n2)cc1, the “% Inhibition” value is reported as -15% and the Z score is reported as 2.51. CCNc1nnc(-c2cc(C)n(C)n2)s1 was tested, and the “% Inhibition” value was -5% and the Z score was 0.59. In the case of OC[C@@H]1C[C@H](F)CN1Cc1ccncc1F, the “% Inhibition” value is reported as -3% and the Z score is reported as 0.41. CCN1C(=O)CCc2cc(C(=O)N3CCCCC3)ccc21 was tested, and the “% Inhibition” value was 0% and the Z score was -0.05. With CC(=O)Nc1ccc(-c2cn3c4ccccc4ccc3[n+]2C)cc1 the “% Inhibition” value was 87% and the Z score was -10.86. For O=C(CCN1CCCC1=O)Nc1cnn(-c2ccccc2)n1, the “% Inhibition” value was -18% and the Z score was 2.39. For Cc1ccc(S(=O)(=O)NCc2ccc(N3CCCC3)cc2)cc1, the “% Inhibition” value was 2% and the Z score was -0.34. COc1ccc(CCNC(=O)[C@H](C)n2nnc3ccccc32)cc1OC was tested, and the “% Inhibition” value was 9% and the Z score was -1.6. With OC[C@@H]1O[C@H](CNCc2ccc(F)cc2)[C@H](N2CCN(c3ncccn3)CC2)[C@@H]1O the “% Inhibition” value was -8% and the Z score was 1.34. With CC1CC(NCCCNc2ccccc2)c2ncnn21 (stereo not given) the “% Inhibition” value was -1% and the Z score was 0.22. In the case of Cc1cc(CN2CCC3(CCC(=O)N(CCc4ccncc4)C3)CC2)on1, the “% Inhibition” value is reported as -9% and the Z score is reported as 1.16. With O=C(CC1(N2Cc3ccccc3C2=O)CCCCC1)NCc1ccccc1 the “% Inhibition” value was -10% and the Z score was 1.5. In the case of Cc1ccc(-c2ccnn2C)cc1NC(=O)Nc1cc[nH]n1, the “% Inhibition” value is reported as -5% and the Z score is reported as 0.66. For FC(F)(F)c1nnc2ccc(N3CCn4ccnc4C3)nn12, the “% Inhibition” value was -2% and the Z score was 0.37. O=C(Nc1nc(C(=O)NCC(F)(F)F)co1)c1ccsc1 was tested, and the “% Inhibition” value was 11% and the Z score was -1.54. For C#CCN(C(=O)CNC(=O)c1cccc(OC)c1)C1CCCC1, the “% Inhibition” value was 11% and the Z score was -1.25. With CCCCC(C(=O)Nc1cc(C)on1)N1CCCC(c2ccn[nH]2)C1 (stereo not given) the “% Inhibition” value was -6% and the Z score was 1.18. With Cc1ccc(-n2c(=O)c3sccc3n(CC(=O)NCc3ccccc3Cl)c2=O)cc1F the “% Inhibition” value was -10% and the Z score was 1.12. For O=C(c1ccc2cccc(Cl)c2n1)N1CC[C@H](N2CCC(O)CC2)[C@@H](O)C1, the “% Inhibition” value was -17% and the Z score was 2.39. For Cc1ccc(S(C)(=O)=O)c(NC(=O)N(C)CC2CC2)c1, the “% Inhibition” value was 17% and the Z score was -2.02. With O=C1CCc2cc(C(=O)N3CCC4(CCC4)CC3)ccc2N1 the “% Inhibition” value was -13% and the Z score was 1.46. In the case of COc1ccc(F)c(CN2CCC[C@@]3(CCN(C(=O)c4cc5ccccc5[nH]4)C3)C2)c1, the “% Inhibition” value is reported as -10% and the Z score is reported as 0.91. In the case of O=C(c1ccc(Cl)cc1)N1C[C@@H]2CC[C@H]1CN(Cc1cscn1)C2, the “% Inhibition” value is reported as -12% and the Z score is reported as 1.32. For Cc1cc(C)n(Cc2cc(C(=O)NCc3ccon3)n[nH]2)n1, the “% Inhibition” value was 13% and the Z score was -1.66. With CC1CC(C)CC(NC(=O)c2ccc(=O)n(CCF)n2)C1 (stereo not given) the “% Inhibition” value was -9% and the Z score was 1.32. For CCC(C)(C)c1nnc(NC(=O)C(C)C)s1, the “% Inhibition” value was -9% and the Z score was 1.61. With CCN(CCC1CCN(C(=O)Nc2ccc(Cl)c(F)c2)CC1)CC1CC1 the “% Inhibition” value was 4% and the Z score was -0.4. In the case of Cc1cc(C(=O)N2CCC[C@H](Cn3cc(C4CCCC4)nn3)C2)nc(C)n1, the “% Inhibition” value is reported as -2% and the Z score is reported as 0.21. With NC(=O)c1ccc(O[C@H]2CCN(C(=O)CC3CCCCC3)C2)nc1 the “% Inhibition” value was -11% and the Z score was 1.8. For Cc1cc(CS(=O)(=O)N2CCc3c2cccc3C(F)(F)F)on1, the “% Inhibition” value was -5% and the Z score was 0.87. With CCCCn1nc(C2CCN(C(=O)OC(C)(C)C)CC2)c2c1CCOC2 the “% Inhibition” value was 5% and the Z score was -1. With O=C(COc1ccccc1)Nc1nc2ccc(Cl)cc2o1 the “% Inhibition” value was -7% and the Z score was 1.39. In the case of COCCn1c(C)cnc1CCNC(=O)c1ccco1, the “% Inhibition” value is reported as -9% and the Z score is reported as 1.32. For Cn1cccc1-c1noc(CNC(=O)[C@@H]2CCCO2)n1, the “% Inhibition” value was -20% and the Z score was 2.53. With O=C1CCC2(CCN1)CCN(S(=O)(=O)c1ccc3c(c1)OCCO3)CC2 the “% Inhibition” value was -3% and the Z score was 0.35. In the case of CS(=O)(=O)N1C2CCC(C2)C1C(=O)NC1CCCC1 (stereo not given), the “% Inhibition” value is reported as 3% and the Z score is reported as -0.58. COc1ccc(NC(C)(C)C(=O)N2CCN(Cc3ccc(F)cc3)C(=O)C2)cc1 was tested, and the “% Inhibition” value was -16% and the Z score was 2.53. For O=C(C1CCCC1)N1CC[C@@]2(CCCN(CC3CCCCC3)C2=O)C1, the “% Inhibition” value was -13% and the Z score was 1.7. In the case of Cc1csc(CN(C)Cc2nonc2C)n1, the “% Inhibition” value is reported as 3% and the Z score is reported as -0.55. With CC(C)C[C@H](O)C(=O)N1CCC2(CC1)C(=O)N(C)c1ccccc12 the “% Inhibition” value was -10% and the Z score was 0.9. With COc1ccc(C)cc1NC(=O)[C@@H]1CCCN1C(=O)c1cc(C(N)=O)cn1C the “% Inhibition” value was -12% and the Z score was 1.44. In the case of Cc1onc(-c2c(Cl)cccc2Cl)c1CN1CCO[C@H](C(F)(F)F)C1, the “% Inhibition” value is reported as -16% and the Z score is reported as 1.51. For CCn1cc(C(=O)NCC2(O)CCC2)cn1, the “% Inhibition” value was -8% and the Z score was 0.98. In the case of O=C(O)[C@H]1CCCN(Cc2ccccc2OCc2c(F)cccc2Cl)C1, the “% Inhibition” value is reported as 3% and the Z score is reported as -0.33. In the case of Cc1n[nH]cc1CN[C@@H](Cn1cnc2ccccc21)c1ccc(F)cc1, the “% Inhibition” value is reported as -13% and the Z score is reported as 1.21. In the case of CCCn1ncc(C(=O)N2CCC(OCc3ccccn3)CC2)c1C, the “% Inhibition” value is reported as -4% and the Z score is reported as 0.6. In the case of C[C@H](NCC(C)(C)S(C)(=O)=O)c1ccc(-n2cnnn2)cc1, the “% Inhibition” value is reported as -7% and the Z score is reported as 0.79. In the case of COC(=O)c1cnc(N2CC(c3ccccc3)C3CCCC32)nc1 (stereo not given), the “% Inhibition” value is reported as -11% and the Z score is reported as 1.2. With Oc1ccc(Cl)c(CN2CC(N3CCOCC3)C2)c1Cl the “% Inhibition” value was -13% and the Z score was 1.59. Cc1nc(C(=O)OC2CCCCCC2)cs1 was tested, and the “% Inhibition” value was 8% and the Z score was -1.23. C[C@@H](c1cccs1)N(C)Cc1cccc2c1NCC2 was tested, and the “% Inhibition” value was -12% and the Z score was 1.4. COC(=O)c1ccc2c(n1)CCCN2S(=O)(=O)c1ccccc1 was tested, and the “% Inhibition” value was 24% and the Z score was -2.84. Cc1csc(-c2cc(S(=O)(=O)NCCN3CCC(C)CC3)cn2CC(=O)N2CCCCC2)n1 was tested, and the “% Inhibition” value was 3% and the Z score was -0.39. CC(C)(C)OC1CC(NC(=O)[C@@H](O)Cc2ccccc2)C1 (stereo not given in full) was tested, and the “% Inhibition” value was -7% and the Z score was 0.94. In the case of c1coc(-c2ncc(-c3nccn3-c3cnc4ccccc4c3)cn2)c1, the “% Inhibition” value is reported as 7% and the Z score is reported as -0.6. For CCc1cc(N[C@H]2CCCN(Cc3cccc(O)c3)C2)n2nccc2n1, the “% Inhibition” value was -9% and the Z score was 1.42. CN1CCC(O)(c2nc(-c3ccco3)nn2CC(C)(C)O)CC1 was tested, and the “% Inhibition” value was -2% and the Z score was 0.4. For O=S(=O)(c1cncc(F)c1)N1CCOC2CCCCC21 (stereo not given), the “% Inhibition” value was -2% and the Z score was 0.24. With CCOc1ccccc1C(=O)N1C[C@H]2C[C@H](C1)[C@H]1CCCC(=O)N1C2 the “% Inhibition” value was -6% and the Z score was 1.25. CCOc1cccc(-n2cc(-c3ccccc3)nc2NC(=O)CN(CC(C)C)C(=O)Cc2ccccc2)c1 was tested, and the “% Inhibition” value was 4% and the Z score was -0.59. With CC(=O)c1ccc(Cl)c(S(=O)(=O)Nc2cccc3c2C(=O)N(C)C3=O)c1 the “% Inhibition” value was 7% and the Z score was -0.87. With c1ccc(-c2ccc(OCCCCN3CCOCC3)cc2)cc1 the “% Inhibition” value was -13% and the Z score was 1.68. CCn1nc(C)n2cc(S(=O)(=O)NC3CCCCCC3)cc2c1=O was tested, and the “% Inhibition” value was 6% and the Z score was -0.75. In the case of c1nc(CNc2nnc(CC3CCCC3)o2)cs1, the “% Inhibition” value is reported as 2% and the Z score is reported as -0.3. With C[C@H](Oc1ccccc1)C(=O)N1CCc2cc(S(=O)(=O)N3CCOCC3)ccc21 the “% Inhibition” value was -6% and the Z score was 0.81. With CC(C)N1C(=O)[C@H](C)N(C(=O)NC2CCCC2)c2cccnc21 the “% Inhibition” value was 1% and the Z score was -0.2. With CC(C)OCCCNC(=O)c1ccc(Cl)o1 the “% Inhibition” value was -6% and the Z score was 0.99. For O=C1OCCN1CCN1CCCN(c2nc3ccccc3[nH]2)CC1, the “% Inhibition” value was -14% and the Z score was 1.38. In the case of Cc1ccc(C(=O)O)n1Cc1ccc(Cl)cc1, the “% Inhibition” value is reported as -8% and the Z score is reported as 1.14.
